{"source": "PubChem BioAssay AID686979", "about": "(National Center for Advancing Translational Sciences (NCATS), 2013)", "note": "Among all 420,000 compounds or so, about 50,000 (12%) were called active. Inconclusive means that the source gave no clear call. Such entries were picked first, then a sample of the others. The call rests on the fitted dose curve; in most records, active means well fitted inhibition curve with a large enough effect; inconclusive means small, poorly fitted or top-dose-only effect; inactive means flat fitted curve, though single readings scatter. No potency is given beside an inconclusive call; the fits are too rough. On the % scale 0 is the no-effect control and ±100 the full control effect; potency means the concentration at half of the fitted maximal effect; tags describe the fitted curve by direction and shape.", "data": [{"experiment": "qHTS for Inhibitors of human tyrosyl-DNA phosphodiesterase 1 (TDP1): qHTS in cells in presence of CPT; further: nearly all actives have a fitted effect of over 55% in size", "settings": "chicken DT40 Tdp1-/-;hTDP1 cells + 20 nM CPT, ATP luminescence, 48 h; activity change, negative = growth inhibition: at 46.2 µM (top of the series)", "how_it_was_run": "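Cell growth measured by CellTiter-Glo luminescence after a minimum 48 h, 37 C compound exposure with 20 nM CPT in Tdp1-knockout DT40 cells stably expressing hTDP1, seeded 400/well; qHTS titration format.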", "values": [{"smiles": "CNC(=S)N1N=C(c2ccc(Br)cc2)CC1c1ccc(N(C)C)cc1", "note": "(stereo not given)", "Potency": "inconclusive [inhibitor, single point]"}, {"smiles": "O=C(COc1ccc(Cl)cc1)N1N=C(c2cccs2)CC1c1ccco1", "note": "(stereo not given)", "Potency": "active: 25.9 µM"}, {"smiles": "CCOc1ccccc1NC(=O)CSc1nc(=O)n(CCN2CCOCC2)c2c1CCCC2", "Potency": "inactive"}, {"smiles": "Cc1nc2ccc(S(=O)(=O)NC(C(=O)N3CCCC3)C(C)C)cc2s1", "note": "(stereo not given)", "Potency": "inconclusive [inhibitor, single point]"}, {"smiles": "Cc1ccc(S(=O)(=O)NCCC(=O)OCC(=O)N2CCCC2=O)cc1C", "Potency": "inactive"}, {"smiles": "COc1cccc(CNC(=O)CCCn2nc(C)c3sc4ccccc4c3c2=O)c1", "Potency": "active: 16.4 µM"}, {"smiles": "COc1ccc(NC(=O)Nc2cccc3c2O[C@H](CN(C)S(=O)(=O)c2ccccc2)[C@@H](C)CN([C@H](C)CO)C3=O)cc1", "Potency": "active: 18.4 µM"}, {"smiles": "Cc1ccc(-c2nc(-c3ccccn3)no2)cc1[N+](=O)[O-]", "Potency": "inconclusive [inhibitor, single point]"}, {"smiles": "CC(C)N1CC2(CC(c3ccccc3C(F)(F)F)=NO2)CN1C(=O)c1ccc(C(C)(C)C)cc1", "note": "(stereo not given)", "Potency": "active: 16.4 µM"}, {"smiles": "CCNc1ncc2ncc(=O)n(C[C@H]3CCCO3)c2n1", "Potency": "active: 11.6 µM"}, {"smiles": "CCc1ccccc1N(C)C(=O)Cn1cnc2sc(C)c(S(=O)(=O)N3CCC(C)CC3)c2c1=O", "Potency": "inactive"}, {"smiles": "CCc1cc(C(=O)NNC(=O)c2csc(N3CCOCC3)n2)sc1C", "Potency": "inconclusive [inhibitor, full curve, poor fit]"}, {"smiles": "CCOc1ccc(-n2c(SCC(=O)Nc3cc(C)on3)nc3c([nH]c4ccccc43)c2=O)cc1", "Potency": "inconclusive [inhibitor, partial curve, poor fit]"}, {"smiles": "Cc1cccc(OCCCC(=O)N2CCCCCC2)c1C", "Potency": "inconclusive [inhibitor, single point]"}, {"smiles": "Cc1ccc(C)c(SCC(=O)Nc2ccc(C)c(S(=O)(=O)N3CCOCC3)c2)c1", "Potency": "active: 23.1 µM"}, {"smiles": "COCCNC(=O)C(c1ccc(Cl)cc1)N(CCOC)C(=O)CCC(=O)Nc1ccccn1", "note": "(stereo not given)", "Potency": "inactive"}, {"smiles": "CCOC(=O)N1CCN(C(=O)c2ccc(OC)c(S(=O)(=O)N3CCOCC3)c2)CC1", "Potency": "inactive"}, {"smiles": "Cc1ccc(Sc2cnn(-c3ccccc3)c(=O)c2Cl)cc1", "Potency": "inconclusive [inhibitor, single point]"}, {"smiles": "CCn1cc2nc(SCC(=O)Nc3ccc(OC)c(Cl)c3)n(Cc3ccc(OC)cc3)c(=O)c2n1", "Potency": "inactive"}, {"smiles": "CCOC(=O)c1csc(NC(=O)CSc2nnnn2-c2ccc(OC)c(OC)c2)n1", "activity change, negative = growth inhibition": "inconclusive: -32.9% [inhibitor]"}]}]}
